According to the supplement of paper PMC3334620:
Over roughly 33,000 sequences, “E-score (-0.5 to 0.5)” has its median near -0.035; the highest 2% begin near 0.35. This is one part of the list.

Molecular target: T1, Pdr3 (UniProt P33200)
T1 sequence: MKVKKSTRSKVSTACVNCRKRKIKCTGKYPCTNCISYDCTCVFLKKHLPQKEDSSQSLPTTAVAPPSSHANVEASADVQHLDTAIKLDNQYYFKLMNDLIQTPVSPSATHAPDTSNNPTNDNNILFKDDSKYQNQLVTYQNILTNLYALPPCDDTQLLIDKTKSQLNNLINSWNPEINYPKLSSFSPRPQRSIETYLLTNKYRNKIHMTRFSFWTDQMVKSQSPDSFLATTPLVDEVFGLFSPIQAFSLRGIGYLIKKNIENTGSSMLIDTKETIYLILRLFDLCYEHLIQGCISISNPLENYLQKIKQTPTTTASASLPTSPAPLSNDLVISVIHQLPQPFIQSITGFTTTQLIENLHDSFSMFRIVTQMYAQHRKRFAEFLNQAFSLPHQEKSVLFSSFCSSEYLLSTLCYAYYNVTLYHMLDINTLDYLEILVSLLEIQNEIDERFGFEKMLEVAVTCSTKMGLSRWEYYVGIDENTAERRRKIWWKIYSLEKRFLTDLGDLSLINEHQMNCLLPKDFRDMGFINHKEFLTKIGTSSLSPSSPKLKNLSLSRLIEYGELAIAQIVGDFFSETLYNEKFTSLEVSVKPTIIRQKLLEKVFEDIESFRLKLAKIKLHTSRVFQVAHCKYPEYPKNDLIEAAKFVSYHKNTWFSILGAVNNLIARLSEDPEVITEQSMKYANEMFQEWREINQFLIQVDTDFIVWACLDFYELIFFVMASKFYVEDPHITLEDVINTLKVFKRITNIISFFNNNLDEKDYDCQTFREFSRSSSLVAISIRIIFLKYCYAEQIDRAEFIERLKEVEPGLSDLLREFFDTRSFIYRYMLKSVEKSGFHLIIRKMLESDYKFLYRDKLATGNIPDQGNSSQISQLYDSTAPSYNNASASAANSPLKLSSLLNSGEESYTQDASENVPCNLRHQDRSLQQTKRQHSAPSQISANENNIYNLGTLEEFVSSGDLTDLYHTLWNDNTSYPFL
Assay: PBM E-score (8-mer binding enrichment) (E-score (-0.5 to 0.5)); higher = stronger / more preferred TF binding; most listed sequences are background and not binding sites
Conditions: protein concentration: 200 nM; construct: GST-full length
How it was run: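 E-scores (a modified Wilcoxon-Mann-Whitney statistic) were assigned by the Universal PBM Analysis Suite to every ungapped eight-base word pooled with its reverse complement. The input came from universal all-10-mer Agilent arrays made double-stranded by primer extension and probed with GST-tagged yeast transcription factors at about 100-200 nM. Fluorescent anti-GST detected bound protein, and masliner normalised the scans.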

Row | Sequence | PBM E-score
1 | GAGTCCCA | 0.0653
2 | AGGGTTGA | -0.193
3 | AAATCCTT | -0.0854
4 | CACCGGTC | -0.12
5 | CAGTAGGA | -0.217
6 | TACCGGCA | 0.214
7 | ATAACAGA | 0.0279
8 | ACCGACTG | 0.0515
9 | AACAAAAC | 0.0622
10 | CACACGCG | 0.158
11 | CCGGACGA | 0.36
12 | CCTTCAGA | -0.244
13 | AGACCGGG | 0.152
14 | CTCGAATC | -0.242
15 | CCCGGGCA | 0.375
16 | AGCGCTAG | -0.0879
17 | CTACCTCA | 0.0597
18 | CATGTCCG | 0.282
19 | ACGCAAGG | -0.0997
20 | CTGGTTCA | -0.107
21 | AAGCCCTT | -0.265
22 | CATACCCA | -0.0695
23 | AGGGGACG | -0.0247
24 | GCCGTGGA | 0.258
25 | CGACACTA | 0.11

Row | Sequence | PBM E-score
26 | AGAACAAC | -0.0827
27 | CATTTATA | -0.105
28 | ACTCTTAC | -0.0821
29 | AAGTGTAG | -0.188
30 | CGGTCCGA | 0.378
31 | TAGAAAGA | -0.248
32 | AATAGGAG | -0.28
33 | GACGCAGC | -0.143
34 | AGAAGCGC | 0.136
35 | AATTGAAG | -0.0227
36 | ACTAGGAG | -0.0988
37 | AATAAGTA | -0.119
38 | AGATTTGA | -0.0183
39 | GCGCCCTA | 0.00749
40 | ATCTTTCA | -0.0345
41 | AGTCTTGC | -0.285
42 | AGTCCAAC | -0.126
43 | GGGGTTCA | -0.00336
44 | ACAAGCAC | -0.021
45 | GTGTACGA | 0.108
46 | AAAAAGTG | -0.143
47 | CCGGTCGC | 0.147
48 | GCCCAGAC | -0.222
49 | CCTGAAAA | -0.19
50 | ATAGTGAT | -0.0665

Row | Sequence | PBM E-score
51 | AGGAAAGC | -0.105
52 | ACTAAAGT | -0.266
53 | CGACAATC | 0.134
54 | CCCCGTCA | 0.156
55 | ACCCCTAG | -0.227
56 | ACGTATAA | -0.0601
57 | ATTCCAGC | 0.0377
58 | AGTCTTCC | 0.0793
59 | CGGATGCA | 0.251
60 | GGTGAGAC | -0.0909
61 | GAATTTGC | 0.189
62 | CTTGAAGC | -0.316
63 | GAACTCAC | 0.00045
64 | ATAGGCGC | 0.0918
65 | CCCGGACC | 0.334
66 | CACCGTGC | -0.00069
67 | ATGTTCCC | 0.153
68 | AACTGCAA | 0.0196
69 | CTACGAAA | -0.209
70 | CATAAAGA | -0.154
71 | AGCACCAC | -0.201
72 | TCAGTACA | -0.0655
73 | GCCGTGCC | 0.15
74 | AATACCGT | 0.102
75 | CTCTGACA | -0.0595

Row | Sequence | PBM E-score
76 | CAAAGTGA | 0.0162
77 | CAACCCCA | 0.118
78 | CAGACACC | -0.0625
79 | AGTTTGAT | 0.0669
80 | CTAGTCCA | -0.137
81 | CCCGACCG | 0.196
82 | GAATCGGA | 0.36
83 | GGCAACGA | 0.182
84 | ACGATACG | -0.245
85 | CGGTCTCC | 0.196
86 | CGAAGGGA | 0.0663
87 | ATAAAGGC | -0.187
88 | ACCCGTAC | 0.157
89 | AGAACTCA | 0.00923
90 | CGGGTCTA | 0.217
91 | AGTAGTGG | -0.0108
92 | ACTGACCC | -0.0589
93 | AGGCGGGC | 0.0717
94 | ACATGTCA | -0.00956
95 | AATTAGAA | -0.0324
96 | TAGGATCA | -0.111
97 | AACGCGAG | -0.0051
98 | GACACTTA | 0.0287
99 | GCTGCAGA | -0.107
100 | AAACACTT | -0.108

Row | Sequence | PBM E-score
101 | ATGTCAAA | -0.0576
102 | GCCCCGGA | 0.41
103 | GCAACCCA | -0.0626
104 | ACACGCAA | -0.0679
105 | GGCGCACC | 0.133
106 | CCAAACCA | -0.0558
107 | AGACGTAT | -0.154
108 | AGTGATCA | -0.0706
109 | GTTATTAA | 0.0473
110 | AACTGCAG | -0.159
111 | ATTCTAAA | 0.0184
112 | CCAGCCGC | 0.35
113 | CCATTGAC | -0.199
114 | AGATTAAA | 0.183
115 | TCCGTTCA | 0.353
116 | AGAGTACG | -0.0785
117 | GAGGGACA | -0.0466
118 | ATGTTAAT | -0.0377
119 | ATCGGAGC | 0.275
120 | ATAAGGGA | -0.102
121 | AACGTAAT | -0.159
122 | AGGCTCGC | 0.0639
123 | CGAAGGAA | -0.0133
124 | AGGCGCCG | 0.161
125 | AGTGTTAC | 0.0571

Row | Sequence | PBM E-score
126 | ACCGCATG | -0.085
127 | ACGCTTGA | -0.181
128 | CCGCAGCA | 0.196
129 | ATTACCTG | -0.106
130 | CTTTTAAA | -0.00725
131 | AAGGCCGT | 0.094
132 | CATGCTCG | -0.0998
133 | CAAAGGGC | -0.078
134 | ATGGGACG | -0.0293
135 | AAATGGCA | 0.0484
136 | GTAGTATA | 0.061
137 | AAGGCTTA | -0.249
138 | ATGGACCA | -0.158
139 | AATCTAAT | -0.14
140 | CGGCGGAA | 0.456
141 | GTGTGTTA | 0.0563
142 | ATCCGTGC | 0.267
143 | CGCGCAAC | 0.195
144 | AAATGGGG | -0.208
145 | CCACGTTA | -0.079
146 | ATAGGACA | -0.221
147 | ACTATCCA | -0.0237
148 | CTAGAGTA | -0.165
149 | ATCAATAG | -0.229
150 | CTCCCTCA | -0.227

Row | Sequence | PBM E-score
151 | AACCCTTC | 0.0652
152 | AATTCGTC | 0.042
153 | ACACCAGT | -0.19
154 | AGAACCCA | -0.176
155 | GCCCTGGA | 0.0153
156 | CCCGATGC | 0.116
157 | ACACAAAC | -0.035
158 | GCACTGAC | -0.0877
159 | GAGGACCA | -0.0704
160 | GGCTATGA | -0.103
161 | TATTTGGA | -0.317
162 | CATAGGAA | -0.0996
163 | CCCAGACA | -0.15
164 | CCACGAGA | -0.11
165 | AGTCCTCC | -0.11
166 | TCTTTTAA | -0.18
167 | CTCTCCAA | 0.033
168 | ATGGCACA | -0.0134
169 | CCGTTGAG | 0.178
170 | AGTTGGGC | 0.0446
171 | GGTTTTTA | -0.113
172 | GACCGAAA | 0.0936
